The results in this text go back to PMC6919601, “Identification of Plasmodium dipeptidyl aminopeptidase allosteric inhibitors by high throughput screening” (PLoS ONE, 2019).

Each structure is given as a SMILES string. The campaign covered roughly 110,000 compounds. About 230 (0.21%) showed an effect of 50% or more. The list shows a part of the results.
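Also: 30 min substrate incubation versus DMSO and 10 µM JCP410 controls.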

DPAP1, sequence (Q8IIJ9 whole entry, looked up): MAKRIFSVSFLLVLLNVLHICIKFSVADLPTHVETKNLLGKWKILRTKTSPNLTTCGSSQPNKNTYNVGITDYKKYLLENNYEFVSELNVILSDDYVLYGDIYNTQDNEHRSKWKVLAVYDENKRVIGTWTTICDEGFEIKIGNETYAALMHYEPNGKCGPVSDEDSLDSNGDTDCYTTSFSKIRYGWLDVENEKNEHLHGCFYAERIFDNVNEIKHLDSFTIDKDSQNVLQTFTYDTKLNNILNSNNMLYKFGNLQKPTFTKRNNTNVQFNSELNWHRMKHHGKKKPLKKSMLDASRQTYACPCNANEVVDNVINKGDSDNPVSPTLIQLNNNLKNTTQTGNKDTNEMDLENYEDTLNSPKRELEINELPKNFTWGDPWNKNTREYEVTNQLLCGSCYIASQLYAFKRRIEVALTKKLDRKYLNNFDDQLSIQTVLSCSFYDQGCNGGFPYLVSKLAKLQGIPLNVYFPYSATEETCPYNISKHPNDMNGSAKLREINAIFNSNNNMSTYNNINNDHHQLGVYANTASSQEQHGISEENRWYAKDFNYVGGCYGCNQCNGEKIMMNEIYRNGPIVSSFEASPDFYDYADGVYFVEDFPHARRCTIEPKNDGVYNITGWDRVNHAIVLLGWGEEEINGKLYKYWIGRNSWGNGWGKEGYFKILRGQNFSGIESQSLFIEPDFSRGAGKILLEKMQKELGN

The assay concerns the target DPAP1 (Plasmodium falciparum, UniProt Q8IIJ9). Nature of the assay: primary screen, percent inhibition; read by cleavage of a fluorogenic dipeptide substrate; higher = more effect of the substance. Details: species or system P. falciparum D10 trophozoite lysates; single well.
On to `O=C(O)c1ccc(Oc2ccc(S(=O)(=O)c3ccc(C(=O)O)cc3)cc2)cc1`, for which the “% Inhibition @ 10 uM” value worked out at 1.63%. Take `COc1c(Cl)cc(Cl)cc1-c1c(C#N)c(N)n2c(nc3ccccc32)c1C#N`: the “% Inhibition @ 10 uM” value was found to be 3.46%. For `CC(Oc1ccccc1)C(=O)Nc1ccc(C(=O)c2ccccc2)cc1` (stereo not shown) the value was -2.65%; for `COc1ccc2c(C)nc(/N=C(N)/N=C(\C)c3ccccc3C(=O)O)nc2c1`, -1.41%; for `CC1=C(C(=O)OCc2ccccc2)C(c2sccc2C)NC(S)=N1` (stereo not shown), -5.63%.

Regarding `CCOc1cccc(C(=O)Nc2ccc(Cl)cn2)c1`, the “% Inhibition @ 10 uM” value is listed as -0.0938%. For `O=C1c2ccc(Oc3ccc4c(c3)C(=O)N(CC3CCCO3)C4=O)cc2C(=O)N1CC1CCCO1` (stereo not shown) the value was -7.28%.

In the case of `O=C(c1ccc(Br)cc1)N1CCC(Cc2ccccc2)CC1`, the “% Inhibition @ 10 uM” value amounted to 1.96%. For `CC(CCCC(C)(C)O)NC1CCc2ccccc2C1` (stereo not shown) the value was -5.44%; for `CCOc1ccc(C(=O)Nc2c3c(nn2-c2ccc(OC)cc2)CS(=O)(=O)C3)cc1`, 4.37%; for `CNC(=O)/C(C#N)=C/c1c(Oc2ccc(C)cc2)nc2ccccn2c1=O`, -1.86%. For `COc1ccc(C(=N)NOC(=O)c2ccc(Br)o2)cc1` the value was 5.3%; for `COC(=O)c1ccc(CSc2nc3ccncc3n2Cc2ccccc2F)cc1`, -3.57%. Take `Cc1cc(S(=O)(=O)Nc2c(C)nc3sccn3c2=O)ccc1F`: the “% Inhibition @ 10 uM” value was 0.454%. On to `CCN(CC)CCNC(=O)C1=C(C)C(=O)OC12CCN(C(C)=O)CC2`, for which the “% Inhibition @ 10 uM” value is recorded as -8.59%. For `CC1=C(C(=O)N2CCOCC2)C(c2cccc(O)c2)C2=C(O)CC(C)(C)CC2=N1` (stereo not shown) the value was -8.35%; for `COc1cc2c(cc1OC)CN(Cc1[nH]cnc1C)CC2`, -6.62%; for `Cc1cccc(C)c1N1C(=O)c2ccc(F)cc2C1=O`, 3.5%. For `Cc1ccc2oc(=O)c3cc(C(=O)Nc4cccnc4)sc3c2c1` the value was 7.78%; for `O=C1OC(/C=C/c2ccccc2)=NC/1=C/c1ccccc1C(F)(F)F`, 12.3%; for `Cc1cc(C)nc(SCCC(=O)Nc2ccccc2Cl)n1`, 3.8%. For `Cc1ccc(-c2onc(C)c2C)cc1S(=O)(=O)NC(C)(C)C`, the “% Inhibition @ 10 uM” value is recorded as -6.49%.

Take `Fc1ccc(CNC2CCN(Cc3ccccc3)CC2)cc1`: the “% Inhibition @ 10 uM” value was -6.62%. As to `O=C(NC1CCCCC1)C1CCCN(c2ncnc3c2nc2n3CCCCC2)C1` (stereo not shown), the “% Inhibition @ 10 uM” value is given as -0.74%.

As to `CCN(CC)CCCNC(=O)c1ccc(CS(=O)(=O)c2ccccc2OC)o1`, the “% Inhibition @ 10 uM” value is on record as -3.09%. As to `Cc1ccc(NC(=O)CN2C(=O)N/C(=C/c3ccc(-c4ccc(F)cc4)o3)C2=O)cc1`, the “% Inhibition @ 10 uM” value is listed as 3.3%. For `CCOC(=O)N1CCN(C(=O)c2cc3n(n2)C(C(F)(F)F)CC(c2ccc4c(c2)OCO4)N3)CC1` (stereo not shown) the value was 4.79%; for `CC(C)c1ccccc1NC1=NS(=O)(=O)c2ccccc21`, 4.16%. For `CC(C)(C)c1ccc(C(=O)Nc2ccccn2)cc1` the value was -4.02%; for `Cc1ccc2c(c1)-c1c(cnn1CC(=O)NCCC1=CCCCC1)CO2`, 5.09%; for `Cc1cc(C(=O)NCC(C)c2ccccc2)n[nH]1` (stereo not shown), 3.95%. For `CCOCCCNc1cnn(C23CC4CC(CC(C4)C2C(=O)O)C3)c(=O)c1Cl` (stereo not shown) the value was 1.15%. On to `CC(C)CC(NC(=O)N1CCN(Cc2ccccc2)CC1)C(=O)NCC#N` (stereo not shown), for which the “% Inhibition @ 10 uM” value worked out at 0.556%. For `COCCN1C(=O)c2oc3cc(C)c(C)cc3c(=O)c2C1c1ccc(OCCC(C)C)c(OC)c1` (stereo not shown) the value was -4.78%; for `O=C(O)c1ccnc(Cl)c1`, -6.67%; for `CC(=O)Nc1ccc(NC(=O)CN(c2cccc3ccccc23)S(C)(=O)=O)cc1`, -2.09%. `CCC(C)(C)NS(=O)(=O)c1cc(CN2C(=O)c3cccnc3C2=O)ccc1OC`: the “% Inhibition @ 10 uM” value was 3.6%.

For `CCOc1ccccc1CNC(=O)CCCn1nc(C)c2c(C)n(-c3ccc(C)cc3)nc2c1=O`, the “% Inhibition @ 10 uM” value was determined as 5.14%. For `O=C(O)CCC(=O)Nc1ccc(N2CCN(c3ccc(F)cc3)CC2)cc1` the value was -0.891%; for `Nc1ncc(Br)cc1S(=O)(=O)NCCC(=O)NCc1ccccc1Cl`, -6.69%; for `CCn1cc(/C=C(\NC(=O)c2ccccc2F)C(=O)NCCCN2CCOCC2)c2ccccc21`, -5.36%.

As to `C=CCn1c(=N)c(C(=O)NCc2ccco2)cc2c(=O)n3cc(C)ccc3nc21`, the “% Inhibition @ 10 uM” value was -1.47%. For `CC(=O)Nc1ccc(S(=O)(=O)Nc2ccccc2C(N)=O)cc1` the value was -0.914%; for `Cc1ccc(OCC(=O)NCCN2CCCC2)cc1`, -2.76%. Take `Cc1ccc(C(=O)NCC2CCCO2)c(F)c1F` (stereo not shown): the “% Inhibition @ 10 uM” value was -0.834%. For `Cc1sc(NC(=O)c2ccc3c(c2)OCO3)c(C(N)=O)c1C` the value was 5.04%.

`CCOc1ccc2nc(SCC(=O)Nc3nc4ccccc4s3)sc2c1`: the “% Inhibition @ 10 uM” value is on record as 3.25%. On to `COc1cc(-c2[nH]nc3c2C(c2ccc(Cl)c(Cl)c2)C(C#N)=C(N)O3)cc(OC)c1OC` (stereo not shown), for which the “% Inhibition @ 10 uM” value came to 0.484%. As to `Cc1onc(-c2ccccc2)c1C(=O)Nc1cccc(OC(C)C)c1`, the “% Inhibition @ 10 uM” value was 1.64%. For `CCOc1cc2c(cc1OCC)C1C(C(=O)NCC3CCCN3CC)c3ccccc3C(=O)N1CC2` (stereo not shown) the value was -2.19%; for `CCOc1ccc(-c2cc(OC(=O)c3ccccc3F)c3c(C)oc(C)c3c(=O)c2)cc1`, -2.75%; for `O=C(c1ccco1)C(O)(c1ccccc1)c1ccco1` (stereo not shown), -3.45%. Turning to `CS(=O)(=O)c1nc(S(=O)(=O)c2ccc(Cl)cc2)c(NCc2ccccn2)s1`, the “% Inhibition @ 10 uM” value is reported as 1.15%.

On to `CCC(C)(C)/N=c1/c(-c2ccc(C(C)C)cc2)c(O)c1=O`, for which the “% Inhibition @ 10 uM” value stood at 2.24%. Consider `COc1ccccc1NC(=O)c1sc(N)c(C#N)c1C`, for which the “% Inhibition @ 10 uM” value amounted to 2.38%. For `N#CCNC(=O)C(CC1CCCCC1)C(=O)Nc1ccccc1` (stereo not shown) the value was -0.214%; for `Cc1c(C(=O)NCCc2ccc(Cl)cc2)sc2nc3n(c(=O)c12)CCCCC3`, -1.38%. For `COc1ccc(CCNS(=O)(=O)c2ccc3oc(C(=O)O)c(C)c3c2)cc1OC` the value was 1.16%. Regarding `CCOc1ccc(/C=C2\SC(N3CCc4ccccc4C3)=NC2=O)cc1`, the “% Inhibition @ 10 uM” value is listed as -0.169%. For `COc1ccc(/C=C/C(=O)c2ccc(-c3ccccc3)cc2)cc1OC` the value was 1.44%. `COc1ccc(C2C(C(=O)CCc3ccccc3)=C(O)C(=O)N2Cc2ccccc2)cc1` (stereo not shown): the “% Inhibition @ 10 uM” value was -5.95%.
